The supplement of paper PMC3334620
Over roughly 33,000 sequences, “E-score (-0.5 to 0.5)” has its median near -0.013; the highest 2% begin near 0.3. This is one part of the list.

What follows are sequences tested against T1, Msn1 (UniProt P22148) (assay: PBM E-score (8-mer binding enrichment) (E-score (-0.5 to 0.5)); higher = stronger / more preferred TF binding; most listed sequences are background and not binding sites). Conditions: protein concentration: 200 nM; construct: GST-full length.
T1 sequence: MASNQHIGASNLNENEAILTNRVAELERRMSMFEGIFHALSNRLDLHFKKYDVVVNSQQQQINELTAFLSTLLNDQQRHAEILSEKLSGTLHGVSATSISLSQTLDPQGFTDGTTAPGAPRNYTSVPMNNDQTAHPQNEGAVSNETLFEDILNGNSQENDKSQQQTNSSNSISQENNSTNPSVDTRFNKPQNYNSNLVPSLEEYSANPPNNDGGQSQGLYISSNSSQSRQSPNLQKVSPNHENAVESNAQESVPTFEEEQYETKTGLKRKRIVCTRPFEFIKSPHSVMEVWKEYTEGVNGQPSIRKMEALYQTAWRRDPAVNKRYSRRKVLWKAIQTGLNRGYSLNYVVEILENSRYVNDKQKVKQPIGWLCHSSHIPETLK
Outline: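 Each ungapped eight-base word and its reverse complement, pooled, received an E-score from the Universal PBM Analysis Suite. Underlying scans, normalised with masliner, recorded fluorescent anti-GST bound to GST-tagged yeast transcription factors. These were applied at about 100-200 nM to universal all-10-mer Agilent arrays double-stranded by primer extension.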
For GCCACCAA, the “PBM E-score” value was -0.0334.
CACACCAA was tested, and the “PBM E-score” value was 0.185.
For ATGTCATA, the “PBM E-score” value was 0.448.
With CTGCTCCA the “PBM E-score” value was -0.0514.
With TCGTCGAA the “PBM E-score” value was 0.00104.
With AGCTTTTG the “PBM E-score” value was 0.215.
GTTCTAGA was tested, and the “PBM E-score” value was 0.152.
For AGCTACCT, the “PBM E-score” value was -0.156.
In the case of TCTGGGAA, the “PBM E-score” value is reported as -0.0386.
For ACTCGTCG, the “PBM E-score” value was -0.0003.
In the case of TATTTTCA, the “PBM E-score” value is reported as 0.164.
For ATTGCGAG, the “PBM E-score” value was -0.00222.
With AATCGACA the “PBM E-score” value was 0.201.
CCTAGTTC was tested, and the “PBM E-score” value was 0.00367.
CAATGCGG was tested, and the “PBM E-score” value was 0.0138.
AAGTATAG was tested, and the “PBM E-score” value was -0.124.
For CACTAGGG, the “PBM E-score” value was -0.274.
In the case of GGACACAC, the “PBM E-score” value is reported as 0.382.
AGTACAAC was tested, and the “PBM E-score” value was -0.0379.
In the case of ACTCAGGG, the “PBM E-score” value is reported as -0.114.
CGAGCGCG was tested, and the “PBM E-score” value was 0.0795.
For GAGCAACC, the “PBM E-score” value was -0.0679.
For GGCTGTGA, the “PBM E-score” value was -0.202.
For CGAACGGC, the “PBM E-score” value was 0.0318.
For ATTGAATA, the “PBM E-score” value was 0.231.
ATTAGACG was tested, and the “PBM E-score” value was -0.0227.
ATCCACAG was tested, and the “PBM E-score” value was -0.0125.
In the case of ATTATGAG, the “PBM E-score” value is reported as 0.0395.
AACGAGGC was tested, and the “PBM E-score” value was -0.135.
In the case of AAAGTTGT, the “PBM E-score” value is reported as 0.202.
AGTCTTCA was tested, and the “PBM E-score” value was -0.0192.
In the case of AGTAGGGG, the “PBM E-score” value is reported as -0.202.
For GATTGCCA, the “PBM E-score” value was -0.00196.
For CTGCGTTA, the “PBM E-score” value was -0.0966.
With AACCAAAT the “PBM E-score” value was 0.0939.
With ATAGACAT the “PBM E-score” value was 0.428.
For CTTCGGCC, the “PBM E-score” value was -0.0503.
For GCATGACA, the “PBM E-score” value was 0.199.
With GGAGACCC the “PBM E-score” value was -0.168.
In the case of CGGCTGCC, the “PBM E-score” value is reported as -0.184.
With GATTTAGC the “PBM E-score” value was -0.0456.
TCCAGTCA was tested, and the “PBM E-score” value was 0.0273.
For AGGATGTG, the “PBM E-score” value was -0.0903.
In the case of ACGGGCCG, the “PBM E-score” value is reported as -0.119.
TAAACCAA was tested, and the “PBM E-score” value was 0.0103.
ATTTACTC was tested, and the “PBM E-score” value was 0.123.
With AGCGTAAT the “PBM E-score” value was -0.00956.
AGGTCGGA was tested, and the “PBM E-score” value was 0.114.
In the case of CATGTATC, the “PBM E-score” value is reported as 0.133.
TGCTTAAA was tested, and the “PBM E-score” value was 0.0464.
GCCCTTCA was tested, and the “PBM E-score” value was -0.279.
With CGGTATCA the “PBM E-score” value was 0.0871.
For CCAACGGG, the “PBM E-score” value was -0.0639.
AGAACATG was tested, and the “PBM E-score” value was 0.109.
With GACGTCCC the “PBM E-score” value was 0.148.
With AAAGGTAA the “PBM E-score” value was 0.0716.
In the case of ATAACAAG, the “PBM E-score” value is reported as 0.0352.
In the case of CCTACAGG, the “PBM E-score” value is reported as -0.0974.
TCTTTCCA was tested, and the “PBM E-score” value was -0.0394.
In the case of CCAGCCCG, the “PBM E-score” value is reported as -0.233.
With GACTACGC the “PBM E-score” value was -0.172.
ACTATCCG was tested, and the “PBM E-score” value was 0.124.
With CTCCGGAA the “PBM E-score” value was 0.0926.
ATATTTGG was tested, and the “PBM E-score” value was 0.132.
CGATGGAC was tested, and the “PBM E-score” value was 0.194.
AATTCAAC was tested, and the “PBM E-score” value was 0.192.
For GGGCAGAC, the “PBM E-score” value was -0.0606.
With CACCGGCC the “PBM E-score” value was -0.245.
For CTCACTGA, the “PBM E-score” value was -0.173.
For AATCGGCA, the “PBM E-score” value was 0.0513.
In the case of CAAAAGAG, the “PBM E-score” value is reported as -0.051.
GGCAGTGA was tested, and the “PBM E-score” value was -0.193.
With ACTTTCGA the “PBM E-score” value was 0.133.
For GCGTACGC, the “PBM E-score” value was -0.0278.
With AAAAGTTA the “PBM E-score” value was 0.206.
AAACGGTC was tested, and the “PBM E-score” value was -0.0164.
With CCTATGGC the “PBM E-score” value was -0.0988.
With AGAATGGG the “PBM E-score” value was -0.054.
CTCCTTGC was tested, and the “PBM E-score” value was -0.102.
GGCCGAAA was tested, and the “PBM E-score” value was 0.242.
For AACGAAGA, the “PBM E-score” value was 0.0745.
With AAAACGTG the “PBM E-score” value was -0.0168.
AAGATCGG was tested, and the “PBM E-score” value was -0.00179.
In the case of GCGGTAAC, the “PBM E-score” value is reported as -0.0609.
For GCCGCGCA, the “PBM E-score” value was -0.136.
For ACTCAGGA, the “PBM E-score” value was -0.0577.
GGCCGCAC was tested, and the “PBM E-score” value was -0.262.
In the case of AATCCCGT, the “PBM E-score” value is reported as 0.139.
TCGTAACA was tested, and the “PBM E-score” value was 0.0979.
For GATGTAAA, the “PBM E-score” value was 0.0907.
With AGGATCTA the “PBM E-score” value was -0.109.
In the case of GGAAAAGA, the “PBM E-score” value is reported as -0.106.
ATTACGGA was tested, and the “PBM E-score” value was 0.138.
For CACTAAAA, the “PBM E-score” value was 0.0839.
For CGTTAAAC, the “PBM E-score” value was 0.113.
In the case of CCCTTAGC, the “PBM E-score” value is reported as -0.312.
For AGAGGTAA, the “PBM E-score” value was -0.0169.
In the case of GATCCGAA, the “PBM E-score” value is reported as 0.206.
For TATGATCA, the “PBM E-score” value was 0.17.
For AGGGAAAC, the “PBM E-score” value was -0.213.
With ATGGAACA the “PBM E-score” value was -0.009.
For GCAGGCTA, the “PBM E-score” value was -0.182.
In the case of ACGTGGGC, the “PBM E-score” value is reported as 0.025.
For CTGCCGGA, the “PBM E-score” value was 0.0709.
For CACCTTGG, the “PBM E-score” value was -0.0346.
In the case of GTGTGGCA, the “PBM E-score” value is reported as -0.221.
With ATCTTCAG the “PBM E-score” value was 0.1.
With ATTTCCGG the “PBM E-score” value was 0.252.
For AAATTGGT, the “PBM E-score” value was 0.104.
For ATCTGTCA, the “PBM E-score” value was 0.159.
In the case of AACCGAAT, the “PBM E-score” value is reported as 0.0779.
With CTCGATTC the “PBM E-score” value was 0.0953.
For GCAAGTAA, the “PBM E-score” value was -0.0526.
ACTGAGAC was tested, and the “PBM E-score” value was 0.189.
With ATGGCTTC the “PBM E-score” value was -0.14.
ATTACGCC was tested, and the “PBM E-score” value was -0.138.
CGGGTGGA was tested, and the “PBM E-score” value was -0.061.
In the case of TCGGTTAA, the “PBM E-score” value is reported as 0.176.
In the case of AAATATCC, the “PBM E-score” value is reported as 0.231.
In the case of ACGCCGAC, the “PBM E-score” value is reported as -0.00489.
CTGCGAGC was tested, and the “PBM E-score” value was 0.0527.
With ATGCCGAG the “PBM E-score” value was 0.112.
In the case of CCGGCTCA, the “PBM E-score” value is reported as -0.0352.
ACAGACTA was tested, and the “PBM E-score” value was -0.00053.
In the case of ACCAGAAG, the “PBM E-score” value is reported as -0.069.
For TGGTTACA, the “PBM E-score” value was -0.00282.
With ATACCTTC the “PBM E-score” value was -0.0629.
For CAGGCCGC, the “PBM E-score” value was -0.144.
With GTAAATTA the “PBM E-score” value was 0.0144.
In the case of ACCTTCAG, the “PBM E-score” value is reported as -0.115.
For ATGCAATC, the “PBM E-score” value was -0.00781.
In the case of ATTCCAAT, the “PBM E-score” value is reported as 0.0648.
For AAGGCGCG, the “PBM E-score” value was -0.00694.
With CACACGAA the “PBM E-score” value was -0.0438.
With CTTCTTTA the “PBM E-score” value was 0.034.
For AAACCCGC, the “PBM E-score” value was 0.117.
For ATGGACTA, the “PBM E-score” value was 0.275.
CGTATGAA was tested, and the “PBM E-score” value was 0.117.
In the case of ACTAAGCC, the “PBM E-score” value is reported as -0.0193.
In the case of CCATATCG, the “PBM E-score” value is reported as -0.0479.
With TAGATTGA the “PBM E-score” value was 0.0299.
In the case of ACCCTTCA, the “PBM E-score” value is reported as -0.25.
CCTTATAG was tested, and the “PBM E-score” value was -0.0228.
TCTCCCCA was tested, and the “PBM E-score” value was -0.287.
CAATAACC was tested, and the “PBM E-score” value was 0.192.
ATGCCGGA was tested, and the “PBM E-score” value was 0.108.
In the case of TAAGGGTA, the “PBM E-score” value is reported as -0.155.
GGCCGGTA was tested, and the “PBM E-score” value was -0.0553.
GAAACAGA was tested, and the “PBM E-score” value was 0.116.
TACCCACA was tested, and the “PBM E-score” value was -0.0189.
In the case of CTGCCGGC, the “PBM E-score” value is reported as -0.0895.
In the case of GTGGAACA, the “PBM E-score” value is reported as 0.0457.
With CAAGCGGG the “PBM E-score” value was -0.124.
For AACTACTT, the “PBM E-score” value was 0.00311.
In the case of GGGGTCAC, the “PBM E-score” value is reported as -0.223.
With AGAGGAGA the “PBM E-score” value was -0.128.
CAACGAAC was tested, and the “PBM E-score” value was 0.149.
AGAAATTA was tested, and the “PBM E-score” value was 0.25.
For CACAGGTA, the “PBM E-score” value was 0.0913.
For CTACCTAC, the “PBM E-score” value was -0.0857.
In the case of CTGGAAAA, the “PBM E-score” value is reported as -0.0134.
In the case of GGGTCCAC, the “PBM E-score” value is reported as -0.0921.
For AACTCGGC, the “PBM E-score” value was 0.138.
ACTGCAGA was tested, and the “PBM E-score” value was 0.00161.
For CTGCGGAC, the “PBM E-score” value was 0.0915.
With CTAGTTAA the “PBM E-score” value was 0.165.
In the case of ACCACAGC, the “PBM E-score” value is reported as 0.00081.
For TGGAGCCA, the “PBM E-score” value was -0.0997.
For CCTCGTCG, the “PBM E-score” value was -0.166.
In the case of CAGGGGTC, the “PBM E-score” value is reported as -0.178.
In the case of AGATAGGC, the “PBM E-score” value is reported as -0.232.
In the case of TACTAAGA, the “PBM E-score” value is reported as 0.236.
